# Measured values published in PubChem BioAssay (NCATS).
# This list was built around the results that the source calls inconclusive (neither active nor inactive); the mix of calls is not that of the screen. For part of these data: Potencies of inconclusive entries are left out as doubtful fits. Activity calls are given as the source filed them. The call rests on the fitted dose curve; in most records, active means well fitted curve in the direction sought with a large enough effect; inconclusive means small, poorly fitted or top-dose-only effect, or another doubt; inactive means no such curve, though single readings can be large; an effect the other way counts as inactive or inconclusive.
# Tests used:
# [1] = tested on: Zika virus NS2B-NS3 protease (linked construct); assay: Primary screen NINDS Rhodamine qHTS for Zika virus inhibitors (AID 1347160); further: nearly all actives have a fitted effect of over 55% in size
# Outline: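 Rhodamine110-peptide cleavage (1.5 µM substrate) by 25 nM linked NS2B-NS3 enzyme at pH 8.0 (Tris, Tween 20), after 15 min RT preincubation with compounds; 15-min fluorescence change normalized to controls and Hill-fitted.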
# [2] = UWB1.289 Cancer Cell Toxicity qHTS against the NCATS CANVASS Library (AID 1347347); further: nearly all actives have a fitted effect of over 60% in size; on activity change, negative = cytotoxicity: on the % scale 0 is the no-effect control and ±100 the full control effect
# Outline: (§1)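 Toxicity is measured over 72 h of compound exposure at 37 degrees C under 5% CO2. Each well holds 1000 cells, pre-incubated for 4 hours before dosing across an 11-point range. CellTiter-Glo luminescence gives viability.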
# [3] = Panc-1005 Cancer Cell Toxicity qHTS against the NCATS CANVASS Library (AID 1347349); further: nearly all actives have a fitted effect of over 60% in size
# Outline: as §1
# [4] = U-118MG Cancer Cell Toxicity qHTS against the NCATS CANVASS Library (AID 1347351)
# Outline: as §1
# [5] = A2780 Cisplatin Sensitive Ovarian Cancer Cell Toxicity qHTS against the NCATS CANVASS Library (AID 1347353); further: nearly all actives have a fitted effect of over 60% in size
# Outline: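 Cells are plated at 750 per well and rest for 4 hours. Compounds are added across eleven concentrations, and incubated 72 hours before ATP is quantified by luminescence.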
# [6] = UWB1.289-WTBRCA1 Cancer Cell Toxicity qHTS against the NCATS CANVASS Library (AID 1347354)
# Outline: (§2)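 First, 1000 cells go into each well and rest for 4 hours. Next, an 11-point dilution range is pinned in. Plates then incubate 72 hours before CellTiter-Glo addition and luminescence reading.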
# [7] = KB-8-5-11 Cancer Cell Toxicity qHTS against the NCATS CANVASS Library (AID 1347364); settings: activity change, negative = toxicity: at 46.1 µM (top of the series); further: nearly all actives have a fitted effect of over 75% in size
# Outline: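 Terse: KB-8-5-11, 500 cells/well, 72 hr, 37C/5% CO2, 11-pt titration, CellTiter-Glo readout; confirmatory runs ± 1uM tariquidar in medium.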
# [8] = qHTS for Hypoxia signaling pathway (HIF-1) antagonists against the NCATS CANVASS Library (AID 1347374); further: nearly all actives have a fitted effect of over 60% in size;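 on activity change, negative = inhibition: HRE-bla ME-180 cells stimulated with cobalt chloride to stabilize HIF-1alpha; on the % scale 0 is the no-effect control and ±100 the full control effect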
# Outline: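 Antagonism scored as loss of CoCl2-driven (60 uM stock added) HRE beta-lactamase signal, read by CCF4 FRET at 460/530 nm. Compounds were tested in an 11-point series on ME-180 reporter cells for 17 hrs at 37C, with parallel CellTiter-Glo cytotoxicity.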
# [9] = qHTS for Activators of p53 Stress Response Pathway screened against the NCATS CANVASS Library (AID 1347388)
# Outline: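 p53RE-bla HCT-116 cells (4000/well) were plated 5 h at 37C, exposed to compounds for 16 h at 37C over an 11-point concentration series, then loaded with CCF4 for 2 h at room temperature; 460/530 nm emission ratio read.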
# [10] = qHTS for activators of Nrf2/ARE signaling pathway screened against the NCATS CANVASS Library (AID 1347391); further: nearly all actives have a fitted effect of over 60% in size
# Outline: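 Beta-lactamase reporter signal, read as 460 and 530 nm emission under 405 nm excitation after 2 h CCF4 loading, reflected ARE activation in HepG2 cells treated 16 h with an 11-point series.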
# [11] = qHTS for inhibitors of ER calcium dysfunction: SERCaMP assay screened against the NCATS CANVASS Library (AID 1347393); settings: SH-SY5Y GLuc-SERCaMP (Gaussia luciferase released on ER calcium loss) secretion, thapsigargin, luminescence; activity change, negative = inhibition: at 76.6 µM (top of the series) unless noted; further: nearly all actives have a fitted effect of over 40% in size;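 on activity change, negative = inhibition: on the % scale 0 is the no-effect control and ±100 the full control effect; lower secreted reporter signal means inhibitor of ER calcium depletion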
# Outline: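 qHTS in SH-SY5Y reporter cells: 16 h compound pretreatment, 4 h thapsigargin, then secreted Gaussia luciferase measured by luminescence.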
# [12] = qHTS for inhibitors of Wild type Zika virus screened against the NCATS CANVASS Library (AID 1347396)
# Outline: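 Luminescent CellTiter Glo read-out of virus-induced cytotoxicity, 72 h post-infection, in Vero 766 cells. Compounds were tested at 11 concentrations; uninfected, vehicle-treated wells defined 100% inhibition.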
# [13] = HEK-293 Cancer Cell Toxicity qHTS against the NCATS CANVASS Library (AID 1347355); further: nearly all actives have a fitted effect of over 65% in size
# Outline: as §2
# [14] = Viability qHTS for inhibitors of the SERCaMP assay screened against the NCATS CANVASS Library (AID 1347400); further: nearly all actives have a fitted effect of over 70% in size; on activity change, negative = cytotoxicity: on the % scale 0 is the no-effect control and ±100 the full control effect
# Outline: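 Seed SH-SY5Y-GLuc SERCaMP MJH297 cells at 1000 per well, incubate 4 h, add compounds across an 11-point range, incubate 48 h at 37C, then add CellTiter-Glo and read luminescence.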
# [15] = qHTS for Antimalaria activity screened against the NCATS CANVASS Library (AID 1347380); further: nearly all actives have a fitted effect of over 40% in size;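 on activity change, negative = inhibition: Plasmodium falciparum strain Dd2 asexual parasites grown in red blood cells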
# Outline: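 Compounds are titrated over 11 concentrations onto Dd2 parasite cultures (0.3% parasitemia, 2.5% hematocrit). Growth over 72 h at 37C in low oxygen is measured as SYBR Green DNA fluorescence after lysis.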
# [16] = HPAF-II Cancer Cell Toxicity qHTS against the NCATS CANVASS Library (AID 1347346); further: nearly all actives have a fitted effect of over 55% in size; on activity change, negative = cytotoxicity: on the % scale 0 is the no-effect control and ±100 the full control effect
# Outline: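 First, HPAF-II cells are plated (1000 cells/well) and held 4 h at 37 degrees C. Next, compounds are pin-transferred as an 11-point series. After 72 h, CellTiter-Glo is added and luminescence measured.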
# [17] = OV-SAHO Cancer Cell Toxicity qHTS against the NCATS CANVASS Library (AID 1347348); settings: OV-SAHO viability, CellTiter-Glo luminescence, 72 h; activity change, negative = cytotoxicity: at 38.3 µM (top of the series); further: nearly all actives have a fitted effect of over 55% in size
# Outline: as §1
# [18] = Secretion counterscreen for inhibitors of the SERCaMP assay screened against the NCATS CANVASS Library (AID 1347390); settings: SH-SY5Y constitutive GLuc secretion, luminescence, 20 h; activity change, negative = inhibition: at 76.6 µM (top of the series);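 further: light from luciferase secreted into medium read as a measure of general secretion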
# Outline: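 Natural products are titrated in an 11-point series up to 77 uM onto SH-SY5Y-GLuc STOP cells for 20 h. Secreted reporter activity is measured as coelenterazine-driven luminescence, with Brefeldin A on each plate.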
# [19] = SW1088 Cancer Cell Toxicity qHTS against the NCATS CANVASS Library (AID 1347350); further: nearly all actives have a fitted effect of over 75% in size
# Outline: as §1
# Potency means the concentration at half of the fitted maximal effect; tags describe the fitted curve by direction and shape.
compound,measurement,setting,value
C=C(C)C(=O)O[C@H]1C[C@H](C)[C@@H](OC(C)=O)CC[C@@]2(C)O[C@@H]2[C@H]2OC(=O)C(COC(C)=O)=C12,Potency,[1],active: 31.1 µM
same,Potency,[2],active: 6.66 µM
same,Potency,[3],active: 6.68 µM
same,Potency,[4],"inconclusive [cytotoxic, single point]"
same,Potency,[5],active: 0.833 µM
same,Potency,[6],active: 7.47 µM
same,Potency,[7],"inconclusive [cytotoxic, single point]"
same,Potency,[8],"inconclusive [inhibitor, single point]"
same,Potency,[9],"inconclusive [activator, single point]"
same,Potency,[10],"inconclusive [activator, partial curve, poor fit]"
same,Potency,[11],active: 0.86 µM
same,Potency,[12],"inconclusive [inhibitor, single point]"
C=C[C@]1(C)CC[C@@H]([C@H](C)C(=O)/C=C/C(C)(C)O)O1,Potency,[1],"inconclusive [inhibitor, partial curve, poor fit]"
same,Potency,[2],"inconclusive [cytotoxic, partial curve, poor fit]"
same,Potency,[5],"inconclusive [cytotoxic, single point]"
same,Potency,[13],"inconclusive [cytotoxic, single point]"
same,Potency,[10],active: 16.6 µM
same,"activity change, negative = inhibition",[11],inconclusive: -25.8% [inhibitor]
same,Potency,[14],"inconclusive [cytotoxic, partial curve]"
CC(=O)[C@@H]1[C@@H](O)C[C@H]2[C@]3(C)CC[C@H]4C(C)(C)CCC[C@]4(CO)[C@H]3C[C@H]3OC(=O)[C@@H]1[C@@]32C,Potency,[1],active: 55.3 µM
same,Potency,[2],"inconclusive [cytotoxic, partial curve]"
same,Potency,[13],"inconclusive [cytotoxic, single point]"
same,Potency,[15],"inconclusive [cytotoxic, full curve]"
same,Potency,[9],inactive
same,Potency,[11],active: 38.4 µM
Oc1ccc(/C=C2/c3cc(O)cc(O)c3C(c3ccc(O)cc3)[C@H]2c2cc(O)cc(O)c2)cc1 (some centres not stated),Potency,[1],active: 27.7 µM
same,Potency,[16],inactive
same,Potency,[3],"inconclusive [cytotoxic, single point]"
same,Potency,[5],inactive
same,Potency,[6],"inconclusive [cytotoxic, partial curve]"
same,Potency,[15],inactive
same,Potency,[14],inactive
CC(C)=CCC[C@]1(C)[C@H]2CC(=O)[C@@]3(CO3)[C@@H]1C2,Potency,[1],"inconclusive [inhibitor, single point]"
same,Potency,[2],inactive
same,Potency,[15],"inconclusive [cytotoxic, full curve]"
same,Potency,[10],inactive
CC(C)=CCC[C@@H](C)[C@@H]1CC[C@@]2(C)C[C@H]3C(C)=CC(=O)[C@@H]3/C(C=O)=C\C[C@H]12,Potency,[1],active: 44 µM
same,Potency,[17],active: 10.6 µM
same,Potency,[4],active: 7.49 µM
same,Potency,[6],active: 10.6 µM
same,Potency,[7],active: 10.5 µM
same,Potency,[8],"inconclusive [inhibitor, full curve]"
same,Potency,[9],"inconclusive [activator, full curve]"
same,Potency,[18],"inconclusive [inhibitor, partial curve, poor fit]"
same,Potency,[12],"inconclusive [inhibitor, single point]"
O=c1cc(-c2ccc(O)c(O)c2)oc2cc(O[C@@H]3O[C@H](CO)[C@@H](O)[C@H](O)[C@H]3O)cc(O)c12,Potency,[1],active: 17.5 µM
same,Potency,[16],"inconclusive [cytotoxic, partial curve]"
same,Potency,[3],"inconclusive [cytotoxic, single point]"
same,Potency,[19],"inconclusive [cytotoxic, single point]"
same,Potency,[5],"inconclusive [cytotoxic, single point]"
same,Potency,[6],"inconclusive [cytotoxic, full curve]"
same,Potency,[13],"inconclusive [cytotoxic, single point]"
same,Potency,[7],"inconclusive [cytotoxic, single point]"
same,Potency,[8],inactive
same,Potency,[10],inactive
same,Potency,[11],active: 38.4 µM
same,Potency,[12],inactive
C[C@@]12CCC[C@@](C)(C(=O)O)[C@H]1C[C@@H](O)[C@@]13C[C@@H](CC[C@@H]21)[C@](C)(O)C3,Potency,[1],"inconclusive [inhibitor, single point]"
same,Potency,[2],inactive
same,Potency,[15],inactive
same,Potency,[9],inactive
C/C=C1/C2=CCCN3C(=O)O[C@H]([C@H]1O)[C@H]23,Potency,[1],"inconclusive [inhibitor, full curve, poor fit]"
same,Potency,[2],"inconclusive [cytotoxic, partial curve]"
same,Potency,[17],inactive
same,Potency,[7],"inconclusive [cytotoxic, single point]"
same,Potency,[8],inactive
same,Potency,[14],inactive
C=C1[C@@]2(C)CC3C4(C)CCC(O)C(C)(C)C4CCC3(C)[C@]1(C(=O)OC)C(=O)C(C)(O)C2=O (some centres not stated),Potency,[1],"inconclusive [inhibitor, partial curve, poor fit]"
same,Potency,[2],inactive
same,Potency,[8],inactive
same,Potency,[15],inactive
same,Potency,[18],"inconclusive [inhibitor, partial curve, poor fit]"
